Out of some 340,000 compounds screened, about 6,900 (2%) were called active. Rule as the data show it: active = inhibition above about 30%; inactive = below that, where a call was filed. Only a part is listed here, and it is no random draw. Entries without a call were filed so in the source.
Each compound was assayed against D(2) dopamine receptor (Homo sapiens) (UniProt P14416) (assay: HTS Assay for Allosteric Antagonists of the Human D2 Dopamine Receptor: Primary Screen for Antagonists). Details: HEK293 TREx D2 cells, calcium flux, dopamine EC80; at 10 µM; stronger effect = higher value.
In short: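 Tetracycline-induced HEK293 TREx cells expressing D2 receptor forced-coupled to calcium signalling, loaded with no-wash calcium dye. Compounds added and calcium flux read 180 s, then dopamine added at EC80 and read a further 180 s.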
Also: 0% is about no effect.

Sequence of UniProt P14416 (P14416 whole entry, looked up): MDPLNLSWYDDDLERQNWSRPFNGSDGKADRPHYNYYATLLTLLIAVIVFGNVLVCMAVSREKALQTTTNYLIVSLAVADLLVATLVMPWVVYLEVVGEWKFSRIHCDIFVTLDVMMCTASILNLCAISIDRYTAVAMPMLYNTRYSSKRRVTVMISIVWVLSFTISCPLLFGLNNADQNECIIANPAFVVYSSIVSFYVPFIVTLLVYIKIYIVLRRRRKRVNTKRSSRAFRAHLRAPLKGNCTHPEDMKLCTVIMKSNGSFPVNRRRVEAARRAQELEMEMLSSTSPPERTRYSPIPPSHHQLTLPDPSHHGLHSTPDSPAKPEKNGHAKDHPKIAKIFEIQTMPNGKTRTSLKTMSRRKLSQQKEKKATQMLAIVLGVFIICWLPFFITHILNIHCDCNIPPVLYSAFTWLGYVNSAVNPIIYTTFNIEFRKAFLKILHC

SMILES	inhibition
CCCSc1nnc2c(n1)OC(c1sccc1C)Nc1ccccc1-2 (stereo not given)	6.34%
CCc1cccc(NC(=O)c2cc3c(=O)n(Cc4ccc(OC)cc4)ccc3nc2C)c1	11.7%
Cc1ccc(N2C(=O)N(CC(=O)C(C)(C)C)c3ccccc3S2(=O)=O)cc1C	5.15%
CCOc1ccc(CCNC(=O)c2ccc(Nc3nc4ccccc4n4nnnc34)cc2)cc1OCC	9.82%
CCOc1ccc(-c2cc(C(=O)N3CCN(S(=O)(=O)c4cc(Cl)ccc4OC)CC3)[nH]n2)cc1	7.42%
CCC(CC)C(=O)N(c1ccc(F)cc1)C1C=CS(=O)(=O)C1 (stereo not given)	active: 72.6%
CCCCOC(=O)c1ccc(NC(=O)Cn2nnc3sc4c(c3c2=O)CCCC4)cc1	-2.61%
O=C(NCc1cccs1)c1ccc(Cn2c(SCc3cccc(F)c3)nc3cccnc32)cc1	-10.5%
COc1ccccc1-c1nc2c(c(SCC(=O)Nc3c(C)cc(C)cc3C)n1)Cc1c(CO)cnc(C)c1O2	-16.4%
CCC(=O)N1CCc2cc(S(=O)(=O)CCC(=O)NCc3ccc(C)cc3)ccc21	10.3%
CCOC(=O)c1c(NC(=O)c2cc3nc(-c4ccc(OC)cc4)cc(C(F)(F)F)n3n2)sc2c1CCC(C)C2 (stereo not given)	16.4%
CCc1cccc(NC(=O)C(Cc2ccccc2)NS(=O)(=O)c2ccc3c(c2)oc(=O)n3C)c1 (stereo not given)	18.4%
CCOC(=O)c1ccc(NC(=O)c2oc(=O)c3ccccc3c2-c2ccccc2)cc1	14.3%
COc1ccc(-n2c(N)c(-c3nc4ccccc4n3C)sc2=S)cc1	active: 33.7%
Cc1cccc(Cn2c(=O)n(CC3CCC(C(=O)N4CCOCC4)CC3)c(=O)c3sccc32)c1 (stereo not given)	6.55%
COc1ccc(-c2cc(C)no2)cc1S(=O)(=O)NC(C)C	0.766%
CCCOC(=O)CSc1ncnc2sc3c(c12)CCC(C)C3 (stereo not given)	15.2%
COc1cccc(NC(=O)N2CCN3CCCCC3C2)c1 (stereo not given)	2.18%
COc1cc(OC)cc(N2C(=O)N(CC(=O)c3ccc(F)cc3)c3ccccc3S2(=O)=O)c1	-10.1%
COc1ccc(CN2CCc3nc(SCC(=O)Nc4cc(C)cc(C)c4)[nH]c(=O)c3C2)cc1	2.02%
COc1ccc(-c2noc(Cn3c(=O)c4ccccc4n(CC(=O)Nc4cccc(OC)c4)c3=O)n2)cc1	7.17%
COc1ccccc1NC(=O)c1sc2nc(N3CCOCC3)c3c(c2c1N)CC(C)(C)OC3	13%
COc1ccc(-c2noc(CSc3nnc(C)n3-c3ccc(OC)cc3)n2)cc1	1.55%
Cc1cccc(NC(=O)c2sc(-n3nc(C)c(Cc4ccc5c(c4)OCO5)c3C)nc2C)c1C	-0.998%
Cc1ccc(Cn2c(SCc3ccc(C(=O)N4CCCCCC4)cc3)nc3ccncc32)cc1	-4.14%

Source: PubChem BioAssay AID485344 (National Center for Advancing Translational Sciences (NCATS), 2010)
